From patent US20160039904A1, “STABILIZED SINGLE HUMAN CD4 DOMAINS AND FUSION PROTEINS” (priority 2013, published 2016)

B1: mD1.23: single domain CD4 (D1) mutant, SEQ ID NO: 2 (protein)
chain: KKVVYGKKGDTVELTCTASQKKNIQFHWKDSNQIKILGNQGSFLTKGPSKLNDRADSRRSLWDQGNFPLIIKNLKPEDSDTYICEVEDQKEEVQLVVVG
B2: mD1.22Fc: Fc-fusion protein of mD1.22 (mD1-Fc, SEQ ID NO: 17) (protein)
chain: KKVVYGKKGDTVELTCTASQKKNIQFHWKNSNQIKILGNQGSFLTKGPSKLNDRVDSRRSLWDQGNFPLIIKNLKPEDSDTYICEVEDQKEEVQLVVVGGP[human IgG1 Fc cut from this listing]

Assays:
[1] = Size-exclusion chromatography in PBS at pH 7.4; format: physicochemical
[2] = system: HIV-1 Bal; assay: Pseudotyped HIV-1 neutralization (HOS-CD4-CCR5 cells); format: cell-based; settings: Table 2, clade B, R5
Method: To determine the potency and breadth of HIV-1 neutralization by the D1 mutants, viruses pseudotyped with Envs from HIV-1 isolates representing clades A-E and using either CCR5 (R5) or CXCR4 (X4) or both (R5X4) as a coreceptor were included. Pseudoviruses were derived from 293T cells and a neutralization assay was performed in duplicate using HOS-CD4-CCR5 (for all R5 and dual tropic viruses) or HOS-CD4-CXCR4 cell lines as described in Chen et al., Proc. Natl. Acad. Sci. USA, 105: 17121-17126 (2008)). Luminescence was measured 48 hours post-infection and the percentage neutralization was calculated by the following formula: (1—average RLU of inhibitor-containing wells/average RLU or virus-only wells)×100.

[3] = system: HIV-1 Env Bal; assay: HIV-1 Env-mediated cell-cell fusion; format: cell-based; settings: Table 4, clade B, R5
[4] = system: HIV-1 Env JRFL; assay: HIV-1 Env-mediated cell-cell fusion; format: cell-based; settings: Table 4, clade B, R5
[5] = system: human blood cell lines BJAB (B cell) and SUP-T1 (T cell); assay: Binding to MHC-expression cells; format: cell-based
[6] = system: CD4 D1-specific antibody (D9); assay: Interaction with CD4 D1-specific antibody D9; format: binding; settings: FIG. 9
Method: To determine if the A55V mutation results in conformational changes, interaction with a CD4 D1-specific antibody (D9) was assessed.

Molecule | oligomeric state by size-exclusion chromatography [1] | IC50 [2] | IC90 [2] | IC90 [3] | IC50 [4] | IC90 [4] | binding with MHC-expression cells [5] | binding with the D9 antibody [6]
B1 | uniformly monomeric |  |  |  |  |  |  | 
B2 |  | 0.4 nM | 1.9 nM | 135 nM | 66 nM | > 222 nM | decreased binding; also recorded: does not bind | largely decreased binding

Entries after “also recorded” stand apart in the source; their conditions may differ.
